Results published in patent publication US12630599B2, “CA2 compositions and methods for tunable regulation” (Obsidian Therapeutics, Inc., priority 2019, dated 2026).

System: Nalm-6 cells
Assay: 48 hour cytotoxicity assay, T cells co-cultured with Nalm-6 cells (NucRed), Incucyte (Example 4, Table 14)
Format: cell-based
Excerpt: The following constructs were transduced into T cells: OT-001356 (nucleic acid sequence SEQ ID NO: 6081 encodes two amino acid sequences, first is SEQ ID NO: 6082 (nucleic acid sequence SEQ ID NO: 6083) second is SEQ ID NO: 6084 (nucleic acid sequence SEQ ID NO: 6085)), OT-001356 (amino acid sequence provided as SEQ ID NO: 6092 and nucleic acid is SEQ ID NO: 6093) OT-001407 (amino acid sequence provided as SEQ ID NO: 6086 and nucleic acid is SEQ ID NO: 6087), OT-001895, OT-002011, OT-002111, OT-0020%, OT-02171. The cells were expanded for 10 days and utilized for cytotoxicity assays. Percentage of CAR positive cells obtained with each of the constructs was as follows: OT-001356: 45.3%; OT-001407, OT-001895: 29.4%, OT-002011: 24.3%, OT-002111: 19.6%, OT-0020%: 6.08%, OT-002171: 13.3%. For cytotoxicity assays, T cells were thawed and co-cultured with Nalm-6 cells (stably expressing NucRed) at different T cells to Nalm-6 cell culture ratios. Target cell viability was determined by measuring cellular fluorescence over time using an Incucyte assay and the results are shown in Table 14.

B1: OT-0020%: construct transduced into T cells for the study of the effect of mbIL12 on CAR activity (protein)
chain: IWELKKDVYVVELDWYPDAPGEMVVLTCDTPEEDGITWTLDQSSEVLGSGKTLTIQVKEFGDAGQYTCHKGGEVLSHSLLLLHKKEDGIWSTDILKDQKEPKNKTFLRCEAKNYSGRFTCWWLTTISTDLTFSVKSSRGSSDPQGVTCGAATLSAERVRGDNKEYEYSVECQEDSACPAAEESLPIEVMVDAVHKLKYENYTSSFFIRDIIKPDPPKNLQLKPLKNSRQVEVSWEYPDTWSTPHSYFSLTFCVQVQGKSKREKKDRVFTDKTSATVICRKNASISVRAQDRYYSSSWSEWASVPCSGGGGSGGGGSGGGGSRNLPVATPDPGMFPCLHHSQNLLRAVSNMLQKARQTLEFYPCTSEEIDHEDITKDKTSTVEACLPLELTKNESCLNSRETSFITNGSCLASRKTSFMMALCLSSIYEDLKMYQVEFKTMNAKLLMDPKRQIFLDQNMLAVIDELMQALNFNSETVPQKSSLEEPDFYKTKIKLCILLHAFRIRAVTIDRVMSYLNASGSGSGSGS[human IgG1 Fc left out here]KQEHFPDNLLPSWAITLISVNGIFVICCLTYCFAPRCRERRGS
Average Total Nalm6-NucRed Area after 48 hour at E:T ratio of 3:1 (E:T ratio 3:1, 48 hour): 109,904
Average Total Nalm6-NucRed Area after 48 hour at E:T ratio of 10:1 (E:T ratio 10:1, 48 hour): 68,898
